Results as given in PubChem BioAssay AID651687 (Broad Institute, 2012).
In all, about 350,000 compounds went through this assay and about 600 (0.17%) were called active. Inconclusive means that the source gave no clear call. Such entries were picked first, then a sample of the others.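 Rule for the calls: active = every replicate shows inhibition of at least 40%; inconclusive = mean inhibition at least 40% but some replicate below; inactive = the rest.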 Where a structure was tested more than once in an assay, its records may differ in their call.

test: inhibitors of PGC1a acetylation signal, primary screen, cell-based, U2OS, AlphaScreen, inhibitor mode (AID 651687); conditions: AlphaScreen anti-acetyl-lysine, at 15.6 µM, active compounds read high, with virally co-expressed GCN5 acetyltransferase;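 note: 0% = neutral control wells and 100% = positive control wells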

| SMILES | inhibition |
| --- | --- |
| CN(C)c1ccc(C=C2SC(=S)NC2=O)cc1 | active: 51.2% |
| O=C1CSC(=Nc2ccc(Cl)cc2)N1Cc1ccco1 | inconclusive: 46.8% |
| O=C(c1ccc(Br)cc1)N1CCCC1 | inactive: 5.4% |
| C[C@H]1CN([C@@H](C)CO)C(=O)c2cc(C#CC(C)(C)O)cnc2O[C@@H]1CN(C)C(=O)C1CCC1 | active: 101% |
| C[C@H]1CN([C@@H](C)CO)C(=O)Cc2cc(NS(=O)(=O)c3ccc(F)cc3)ccc2O[C@@H]1CN(C)C(=O)Nc1ccc2c(c1)OCO2 | inconclusive: 54.6% |
| O=C(Cc1csc(N2CCOCC2)n1)N/N=C/c1cccc(O)c1 | inconclusive: 55.9% |
| Cc1cccc(N(CC(=O)NC(C)(C)C)C(=O)CNC(=O)c2cccs2)c1 | inconclusive: 47.4% |
| CCCC(=O)C1=C(O)C(C(=O)OC)C(C)(C)CC1=Nc1ccc(OC)cc1 (stereo unspecified) | active: 46.2% |
| C[C@@H]1CN([C@H](C)CO)S(=O)(=O)c2ccc(/C=C/c3ccccc3)cc2O[C@@H]1CN(C)C(=O)Nc1cc(F)ccc1F | inactive: -1.47% |
| O=C(O)c1cc(O)c2c(c1)C(=O)c1cccc(O)c1C2=O | inconclusive: 67% |
| CC(=O)CS(=O)(=O)c1ccc(Oc2ccc(S(=O)(=O)CC(C)=O)cc2)cc1 | inconclusive: 41.3% |
| CCNC(=S)NNC(=O)c1csc2ccccc12 | active: 58.6% |
| C[C@@H]1CN([C@@H](C)CO)C(=O)c2cc(NC(=O)Nc3cccc4ccccc34)ccc2O[C@@H](C)CCCCO[C@H]1CN(C)C(=O)NC1CCCCC1 | inconclusive: 41.6% |
| CCn1cc(C(=O)NCc2cccnc2)c2cc(OC)c(OC)cc2c1=O | inconclusive: 45.4% |
| N#Cc1cc2c(=O)n3ccccc3nc2n(Cc2cccnc2)c1=O | inconclusive: 49% |
| COc1ccc(C(=O)OCC(=O)NCc2ccc3c(c2)OCO3)cc1[N+](=O)[O-] | inconclusive: 45.6% |
| CCCNC(=O)[C@H]1[C@H](CO)[C@H]2Cn3c(ccc(-c4ccccc4)c3=O)[C@H]2N1C(=O)C1CC1 | inconclusive: 40.8% |
| COc1ccc2c3c([nH]c2c1)[C@@H](CO)N(C(=O)c1ccccc1)CC31CCN(S(=O)(=O)c2cccs2)CC1 | inconclusive: 50.6% |
| O=C(Nc1cccc(Cl)c1)c1cncn1-c1ccc(F)cc1 | inconclusive: 44.8% |
| O=C(NCc1ccc(Cl)cc1)C1CCC(CNc2c(N3CCCC3)c(=O)c2=O)CC1 (stereo unspecified) | inconclusive: 42.9% |
| C[C@H](CO)N1C[C@H](C)[C@@H](CN(C)C(=O)Nc2ccc(F)cc2)Oc2ncc(C#CC3CC3)cc2C1=O | inconclusive: 46.5% |

| SMILES | inhibition |
| --- | --- |
| Cc1ccc(CC(=O)Nc2nccs2)cc1 | inconclusive: 50.8% |
| COc1cccc2cc(C(C)N(CCCN3CCOCC3)C(=S)Nc3cc(C)ccc3C)oc12 (stereo unspecified) | inconclusive: 43.8% |
| COc1cc(NC(=O)CCN2CCN(C)CC2)cc(OC)c1 | inconclusive: 49.9% |
| Cc1ccccc1S(=O)(=O)N[C@H]1CC[C@H](CCn2cc(Cc3ccccc3)nn2)O[C@@H]1CO | active: 60.9% |
| CN1c2ccccc2-c2nc3ccccc3n2C1c1ccncc1 (stereo unspecified) | inactive: -11.3% |
| Cc1ccccc1NC(=O)/C(C#N)=C\c1cc(C)n(-c2ccc(C(=O)O)cc2)c1C | inconclusive: 44.3% |
| O=C1C=CC(=O)c2c(O)c(N3CCN(CCO)CC3)c(Cl)c(O)c21 | active: 50.5% |
| C[n+]1cccc(CNC(=O)/C=N/O)c1 | inconclusive: 51.4% |
| COc1ccccc1CNS(=O)(=O)c1cc(C)ccc1OC | inconclusive: 43.2% |
| Cc1cc(OCC(=O)O/N=C(\N)c2ccccc2)cc(C)c1Cl | inconclusive: 59% |
| COc1cc(NC(=O)NCc2ccco2)ccc1-c1ccc(NC(=O)NCc2ccco2)cc1OC | active: 47.8% |
| O=C(c1ccc(NC(=O)C2(c3ccccc3)CCOCC2)cc1)N1CCOCC1 | inconclusive: 41% |
| CCN(CC)C1CC(=O)N(c2ccc(Br)cc2)C1=O (stereo unspecified) | inconclusive: 41.3% |
| COC(=O)c1ccccc1N(C)S(=O)(=O)c1cc2c(cc1C)OCC(=O)N2 | inconclusive: 43.8% |
| Cc1cccc(C)c1NC(=O)CNC(=O)C(C)N1CCN(c2cccc(Cl)c2)CC1 (stereo unspecified) | inactive: -11.4% |
| CC(C)NC(=O)N1C[C@@H]2[C@H](c3ccccc31)[C@@H](CO)N2C(=O)Nc1cccc(F)c1 | inactive: 6.62% |
| O=S(=O)(Nc1nc2c(s1)CCCC2)c1ccc(F)cc1 | inconclusive: 49.2% |
| O=C(C[C@H]1C[C@H]2c3cc(NC(=O)c4cccnc4)ccc3O[C@H]2[C@@H](CO)O1)NC1CCCCC1 | inactive: -5.27% |
| Cc1noc(C)c1S(=O)(=O)Nc1ccc2c(c1)C(=O)N([C@@H](C)CO)C[C@H](C)[C@@H](CN(C)Cc1ccc(C(=O)O)cc1)O2 | inactive: 12% |
| O=C(/C=C/c1ccccc1)CC(O)(c1ccccc1)C(F)(F)F (stereo unspecified) | inconclusive: 41.5% |
| COC(=O)c1ccc(CSc2nc3c(cnn3-c3ccc(Cl)cc3)c(=O)[nH]2)o1 | inconclusive: 53.2% |

| SMILES | inhibition |
| --- | --- |
| Cc1nn(CC(=O)Nc2ccc(C(C)C)cc2)c(C)c1[N+](=O)[O-] | inconclusive: 43.2% |
| O=S(=O)(N[C@@H]1CC[C@@H](CCNS(=O)(=O)c2ccccc2Cl)O[C@H]1CO)c1ccccc1 | active: 61.7% |
| COC(=O)c1sccc1NC(=O)NC1CCCCC1 | inactive: -5.73% |
| CCOC(=O)CNC(=O)OC1CCN2Cc3ccccc3N=C12 (stereo unspecified) | active: 77.5% |
| CO[C@@H]1CN(C)C(=O)c2cc(NC(C)=O)ccc2OC[C@@H](C)N(Cc2ccccc2C(=O)O)C[C@@H]1C | inconclusive: 43.4% |
| N#Cc1sc2nccc(Nc3ccccc3)c2c1N | inconclusive: 42.9% |
| C[C@H](CO)N1C[C@H](C)[C@@H](CN(C)C)Oc2ccc(NC(=O)Nc3ccc(F)cc3)cc2C1=O | inactive: -5.36% |
| COc1ccc(NCc2nnc(SCC(=O)Nc3cc(C)cc(C)c3)o2)cc1 | inconclusive: 51.9% |
| O=C(CN(Cc1ccc2c(c1)OCO2)C(=O)CNS(=O)(=O)c1ccccc1)NCc1ccco1 | inconclusive: 45.7% |
| O=C(NC(=S)Nc1ccc(CN2CCCCC2)cc1)c1cc2ccccc2o1 | inconclusive: 43.2% |
| O=S(=O)(Nc1cccc(CCc2ccccn2)c1)c1ccc2ccccc2c1 | inconclusive: 44.3% |
| C[C@@H]1CN([C@H](C)CO)C(=O)c2cccc(NS(C)(=O)=O)c2O[C@@H]1CN(C)Cc1ccc(Oc2ccccc2)cc1 | inactive: -4.9% |
| Cc1ccccc1NC1=C/C(=N\S(=O)(=O)c2cccs2)c2ccccc2C1=O | active: 88% |
| Cn1ncc(N=Cc2ccccc2)c1C(N)=O | inconclusive: 47.9% |
| O=C(Nc1nc2c(s1)CN(Cc1ccccc1)CC2)c1c(F)cccc1F | inconclusive: 40.9% |
| COc1cccc(C(=O)N2CCN(Cc3cc(Br)ccc3OC)CC2)c1 | inactive: -57.5% |
| COc1ccc(C(=O)NCCCSC)cc1OC1CCN(C(C)C)CC1 | inconclusive: 44.2% |
| CCOC(=O)Cn1cnc2scc(-c3ccccc3)c2c1=O | inconclusive: 42.9% |
| O=C(Nc1cccc(Cl)c1)Nc1ccc2c(c1)OCO2 | inconclusive: 58.8% |
| O=CNCCc1nc2ccccc2n1CCc1ccccc1 | inconclusive: 52.9% |
| CCOC(=O)Cc1csc(SCC(=O)Nc2cc(Cl)ccc2Oc2ccccc2)n1 | inactive: 21.7% |

| SMILES | inhibition |
| --- | --- |
| Cc1nn(C)c(C)c1N1C(=O)c2cccc3c(Br)ccc(c23)C1=O | inconclusive: 78.1% |
| O=C(c1cccc(S(=O)(=O)NCc2ccccc2)c1)N1CCN(c2cccc(C(F)(F)F)c2)CC1 | inactive: 0.269% |
| COc1ccc(CN(C)C[C@@H]2Oc3ccc(NC(=O)Cn4cnnn4)cc3C(=O)N([C@H](C)CO)C[C@H]2C)cc1 | inactive: 6.88% |
| CC(=O)N(C1=C(N2CCOCC2)C(=O)c2ccccc2C1=O)c1ccc(C(=O)O)cc1 | inconclusive: 40.1% |
| C[C@@H]1CN([C@@H](C)CO)C(=O)CCCn2nncc2CO[C@H]1CN(C)S(=O)(=O)c1ccc(Cl)cc1 | active: 96.7% |
| c1ccc(-c2cc(-c3ccccc3)n3ncnc3n2)cc1 | inconclusive: 44.8% |
| CO[C@H]1CN(C)C(=O)c2cc(NC(C)=O)ccc2OC[C@@H](C)N(CC2CCCCC2)C[C@@H]1C | inconclusive: 41% |
| COc1cccc(-c2nn(-c3ccccc3)cc2CN(C)C(C)c2ccncn2)c1 (stereo unspecified) | inconclusive: 41.4% |
| CCC(=O)Nc1ccc2c(c1)OC[C@H](C)N(C(=O)Cc1ccccn1)C[C@@H](C)[C@@H](OC)CN(C)C2=O | inactive: 0.954% |
| O=C1c2cccc3c([N+](=O)[O-])ccc(c23)C(=O)N1c1ccccn1 | inconclusive: 43% |
| O=C(N/N=C/C=C\c1ccccc1[N+](=O)[O-])c1cccnc1 | inconclusive: 41.6% |
| CC(=O)Nc1ccc(C(=O)OC2CCOC2=O)cc1 (stereo unspecified) | inconclusive: 46.9% |
| O=C(N[C@@H]1CC[C@H](CCNC(=O)C2CCCC2)O[C@H]1CO)c1ccccn1 | inactive: 0.863% |
| Fc1cccc(CN2C[C@@H]3N[C@H](C2)[C@@H]3c2ccc(-c3cccc(F)c3)cc2)c1 | active: 99.2% |
| COc1ccccc1/C=C/c1nc2ccc(OC(C)=O)cc2c(=O)o1 | inconclusive: 40% |
| CC(=O)Nc1ccc(NC(=O)c2cc(=O)c3ccccc3o2)cc1 | inconclusive: 42% |
| O=C(Nc1ccccc1)N1CCCC(c2nc(-c3ccc(F)cc3)no2)C1 (stereo unspecified) | inactive: -6.88% |
| COc1cccc(N(CC(=O)N2CCN(Cc3ccccc3)CC2)S(C)(=O)=O)c1 | inconclusive: 45.7% |
